# In all, about 360,000 compounds went through this assay and about 16,000 (4.4%) were called active. This list was built around the results that the source calls inconclusive (neither active nor inactive); the mix of calls is not that of the screen. The call rests on the fitted dose curve; in most records, active means well fitted inhibition curve with a large enough effect; inconclusive means small, poorly fitted or top-dose-only effect; inactive means no such curve, though single readings can be large or run the other way. Potencies beside an inconclusive call are fits to weak or partial responses and may not hold up. Some compounds were tested as several samples or in several runs, with calls that do not always agree.
# Molecular target: Bromodomain adjacent to zinc finger domain protein 2B (Homo sapiens) (UniProt Q9UIF8)
# Chain of UniProt Q9UIF8 (Q9UIF8 whole entry, looked up, the tested form may be a part): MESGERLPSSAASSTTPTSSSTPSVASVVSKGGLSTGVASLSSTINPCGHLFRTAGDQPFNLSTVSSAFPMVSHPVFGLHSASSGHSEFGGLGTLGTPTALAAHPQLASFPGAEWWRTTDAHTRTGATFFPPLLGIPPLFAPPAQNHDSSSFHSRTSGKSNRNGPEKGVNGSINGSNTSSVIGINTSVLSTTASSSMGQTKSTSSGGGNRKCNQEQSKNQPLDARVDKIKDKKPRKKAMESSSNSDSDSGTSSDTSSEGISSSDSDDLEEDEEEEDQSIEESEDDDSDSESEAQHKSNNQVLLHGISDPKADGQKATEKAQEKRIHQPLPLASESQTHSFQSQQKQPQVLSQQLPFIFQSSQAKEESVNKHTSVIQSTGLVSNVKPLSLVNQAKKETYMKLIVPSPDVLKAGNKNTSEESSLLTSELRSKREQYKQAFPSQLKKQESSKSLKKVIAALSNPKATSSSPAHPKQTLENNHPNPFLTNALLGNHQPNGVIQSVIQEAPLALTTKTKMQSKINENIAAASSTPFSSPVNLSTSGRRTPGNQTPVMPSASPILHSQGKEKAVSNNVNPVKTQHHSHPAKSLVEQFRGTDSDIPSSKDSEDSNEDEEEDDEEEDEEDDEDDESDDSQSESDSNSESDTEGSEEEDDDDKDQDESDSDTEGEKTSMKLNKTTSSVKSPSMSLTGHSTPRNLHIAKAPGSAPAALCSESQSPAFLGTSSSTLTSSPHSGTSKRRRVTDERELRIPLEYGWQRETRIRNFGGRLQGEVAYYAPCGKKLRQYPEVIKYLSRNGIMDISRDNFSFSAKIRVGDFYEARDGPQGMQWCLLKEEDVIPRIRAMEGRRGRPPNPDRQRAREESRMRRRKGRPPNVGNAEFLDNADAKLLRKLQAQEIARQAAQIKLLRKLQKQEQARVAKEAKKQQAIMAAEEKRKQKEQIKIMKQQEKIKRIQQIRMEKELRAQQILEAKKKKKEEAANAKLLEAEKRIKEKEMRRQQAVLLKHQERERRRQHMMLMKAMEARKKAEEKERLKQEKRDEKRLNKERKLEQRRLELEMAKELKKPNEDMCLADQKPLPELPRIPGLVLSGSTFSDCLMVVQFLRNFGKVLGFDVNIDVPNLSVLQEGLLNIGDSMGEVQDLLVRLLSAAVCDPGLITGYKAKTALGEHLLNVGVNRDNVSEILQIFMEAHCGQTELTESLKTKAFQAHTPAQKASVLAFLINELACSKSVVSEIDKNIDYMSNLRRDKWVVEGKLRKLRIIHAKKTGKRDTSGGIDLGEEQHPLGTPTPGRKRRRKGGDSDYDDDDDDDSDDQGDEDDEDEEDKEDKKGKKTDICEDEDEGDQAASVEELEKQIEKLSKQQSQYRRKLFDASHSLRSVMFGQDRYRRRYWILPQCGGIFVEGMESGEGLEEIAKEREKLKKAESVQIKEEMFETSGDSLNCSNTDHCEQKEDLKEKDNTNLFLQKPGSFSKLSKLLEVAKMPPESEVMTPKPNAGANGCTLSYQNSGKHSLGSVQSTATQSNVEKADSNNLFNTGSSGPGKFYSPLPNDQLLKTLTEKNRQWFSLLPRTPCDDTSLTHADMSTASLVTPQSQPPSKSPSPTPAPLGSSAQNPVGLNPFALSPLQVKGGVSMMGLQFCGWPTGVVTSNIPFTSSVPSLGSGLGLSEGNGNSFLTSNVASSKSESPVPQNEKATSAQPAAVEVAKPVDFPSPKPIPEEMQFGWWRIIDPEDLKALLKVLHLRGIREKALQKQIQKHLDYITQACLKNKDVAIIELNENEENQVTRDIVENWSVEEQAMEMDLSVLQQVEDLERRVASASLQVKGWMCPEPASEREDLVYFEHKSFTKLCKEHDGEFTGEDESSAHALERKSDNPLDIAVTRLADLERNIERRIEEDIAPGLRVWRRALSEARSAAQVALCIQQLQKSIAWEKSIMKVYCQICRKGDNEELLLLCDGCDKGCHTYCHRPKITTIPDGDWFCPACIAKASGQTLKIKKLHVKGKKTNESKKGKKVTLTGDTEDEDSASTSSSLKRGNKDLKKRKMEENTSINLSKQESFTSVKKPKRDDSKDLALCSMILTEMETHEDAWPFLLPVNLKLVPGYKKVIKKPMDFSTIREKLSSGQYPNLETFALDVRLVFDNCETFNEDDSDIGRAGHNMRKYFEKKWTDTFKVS
# Experiment: qHTS Assay for Inhibitors of BAZ2B; further: nearly all actives have a fitted effect of over 60% in size
# Settings: AlphaScreen BAZ2B-H3K14Ac peptide displacement; activity change, negative = inhibition: at 114 µM (top of the series)
# How it was run: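 Multi-concentration screen (max 110 uM) measuring displacement of acetylated histone H3 peptide from BAZ2B by AlphaScreen, using 50 nM protein, 50 nM peptide and 10 ug/mL streptavidin donor plus Ni-chelate acceptor beads.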
# On the % scale 0 is the no-effect control and ±100 the full control effect; potency means the concentration at half of the fitted maximal effect; tags describe the fitted curve by direction and shape.
SMILES,"activity change, negative = inhibition",Potency
CC(=O)ON1C(C)(C)Cc2noc(N)c2C1(C)C,inactive: 3.35%,
Cc1ccc(NC(=O)CN(C)C(=O)c2n[nH]c(=O)c3ccccc23)cc1,inactive: -16.2%,
CC1(OC(=O)C2CCCC2)C(=O)C=C2C=C(c3ccsc3)N(c3ccccc3)C=C2C1=O (stereo not drawn),,"inconclusive: 39.8 µM [inhibitor, partial curve]"
Cc1ccc(S(=O)(=O)n2nc(-c3ccco3)nc2NCc2ccc(N(C)C)cc2)cc1,,active: 10 µM
O=C(CCc1nnc(COc2ccccc2)o1)NCc1ccc(Cl)s1,inactive: -1.92%,
O=C1NN(c2ccccc2)C(=O)/C1=C/c1coc2ccccc2c1=O,inactive: -23.5%,
CCC(=O)Nc1ncc2c(n1)CC(c1ccco1)CC2=O (stereo not drawn),inactive: 10.8%,
COCCNC(=O)c1c(N)sc2c1CCCC2,,"inconclusive: 100 µM [inhibitor, single point]"
O=C(CCn1cccc1)NCc1ccc(Cl)cc1,,"inconclusive: 79.4 µM [inhibitor, single point]"
CCCCNC(=O)c1onc(CSc2cccc(F)c2)c1C(=O)O,,"inconclusive: 89.1 µM [inhibitor, single point]"
Cc1noc(-c2ccc(-c3noc(-c4cccc(Cl)c4)n3)cc2)n1,inactive: 3.22%,
CCc1ccc2occ(CC(=O)Nc3sc4c(c3C(=O)NCCOC)CCCC4)c2c1,inactive: -2.73%,
COc1ccc(OCc2nc(N)nc(Nc3ccccc3OC)n2)cc1,,"inconclusive: 79.4 µM [inhibitor, single point]"
C/C(=N\Nc1nc2ccccc2[nH]1)c1ccc(N2CCOCC2)cc1,,active: 20 µM
Cc1onc(-c2c(F)cccc2Cl)c1C(=O)NC(=S)Nc1c(C)n(C)n(-c2ccccc2)c1=O,,"inconclusive: 79.4 µM [inhibitor, single point]"
COc1ccc(S(=O)(=O)N(CC(=O)Nc2ccc3c(c2)OCO3)c2ccc(C)cc2)cc1,,"inconclusive: 56.2 µM [inhibitor, partial curve]"
COc1ccc(OC)c(NC(=O)c2c(NCc3ccc(N(C)C)cc3)sc3c2CCCC3)c1,,active: 11.2 µM
C=CCOC(=O)C1=C[C@H](C2CC2)[C@@H](CCCO)[C@H](OCC)O1,inactive: 0.192%,
COc1ccc(NC(=O)c2oc3ccccc3c2NC(=O)C23CC4CC(CC(C4)C2)C3)cc1,inactive: -27.7%,
COc1cc(C(=O)N/C(=C\c2cn(C)c3ccccc23)C(=O)NCCCO)cc(OC)c1OC,,"inconclusive: 79.4 µM [inhibitor, single point]"
CC1=C(C(=O)Nc2ccccc2)C(c2ccccn2)n2nc(SCc3ccccc3Cl)nc2N1 (stereo not drawn),inactive: -2.26%,
c1ccc(-c2cn3c4c(sc3n2)CCCC4)cc1,,"inconclusive: 50.1 µM [inhibitor, partial curve]"
Cc1cccc(OCC(=O)N2CCN(C(=O)CCC3CCCC3)CC2)c1,inactive: -2.01%,
O=C(Nc1nnc(S(=O)(=O)N2CCCCCC2)s1)c1ccccc1,,active: 8.91 µM

SMILES,"activity change, negative = inhibition",Potency
O=C(C1=C[C@@H](c2ccccc2)C[C@@H](OCc2ccc(CO)cc2)O1)N1CCN(Cc2ccc3c(c2)OCO3)CC1,,"inconclusive: 35.5 µM [inhibitor, partial curve]"
CN(Cc1ccco1)S(=O)(=O)c1nnc(NC(=O)c2ccccc2)s1,,"inconclusive: 79.4 µM [inhibitor, single point]"
COc1ccc(C(=O)N2CCc3cc(OC)c(OC)cc3C2c2ccc(OC)c(OC)c2)cc1OC (stereo not drawn),,"inconclusive: 79.4 µM [inhibitor, single point]"
CC(=O)C1=C(O)C(=O)N(CCO)C1c1ccccc1 (stereo not drawn),,"inconclusive: 89.1 µM [inhibitor, single point]"
CCOc1ccc(NC(=O)CC2C(=O)N(c3cccc(OC)c3)C(=O)N2CCOC)cc1 (stereo not drawn),inactive: -6.92%,
CC(C)Oc1ccccc1C1CC(=O)Nc2cc3c(cc21)OCO3 (stereo not drawn),,"inconclusive: 79.4 µM [inhibitor, single point]"
CCCOc1ccc(C(=O)Nc2ccc(S(=O)(=O)Nc3onc(C)c3C)cc2)cc1,,"inconclusive: 79.4 µM [inhibitor, single point]"
O=c1cc2nc(-c3ccccc3)nc(SCCOc3ccc(Cl)cc3)n2[nH]1,,active: 50.1 µM
Oc1c(/C=N/Nc2cccc3cccnc23)ccc2ccccc12,inactive: -1.05%,
O=C(O)C1CC=CCC1C(=O)N1CCCC1 (stereo not drawn),inactive: 4.92%,
O=C(Nc1cccc(Cl)c1Cl)c1cc(S(=O)(=O)N2CCCc3ccccc32)ccc1F,inactive: 5.77%,
Cc1noc(NS(=O)(=O)c2ccc(NC(=O)Nc3ccc(Cl)c(Cl)c3)cc2)c1C,,"inconclusive: 89.1 µM [inhibitor, single point]"
CN1C(C(=O)NCc2ccco2)=CC(c2ccc(F)cc2)=NS1(=O)=O,,"inconclusive: 56.2 µM [inhibitor, partial curve]"
Cc1ccccc1C(=O)NCC(=O)NNC(=O)c1cccc(Cl)c1,inactive: 2.1%,
CCOc1ccc(-n2c(C)cc(/C=N/Nc3nc(C)cc(=O)[nH]3)c2C)cc1,inactive: -26.6%,
Cc1ccc(/C=C/c2nc3sc(C(=O)O)c(C)c3c(=O)[nH]2)cc1[N+](=O)[O-],,active: 89.1 µM
Cc1ccccc1Nc1c(-c2ccncc2)nc2ccc(Br)cn12,,"inconclusive: 50.1 µM [inhibitor, partial curve]"
Cc1ccc(C)n1NC(=O)c1ccccc1O,,"inconclusive: 89.1 µM [inhibitor, single point]"
COc1ccccc1N=Nc1nc(-c2ccccc2)c(-c2ccccc2)[nH]1,,active: 10 µM
COc1ccc2nc3ccccc3nc2c1N,,active: 28.2 µM
CCCN(C(=O)COC(=O)c1cc(CC)c(C)s1)c1c(N)n(Cc2ccccc2)c(=O)[nH]c1=O,,"inconclusive: 89.1 µM [inhibitor, single point]"
O=C(COC(=O)c1ccc(O)cc1)Nc1ccc(Cl)cc1,,"inconclusive: 112 µM [inhibitor, partial curve]"
CCCc1n(CC(O)COCC2CC=CCC2)c2ccccc2[n+]1C (stereo not drawn),,"inconclusive: 89.1 µM [inhibitor, single point]"
COc1ccc2[nH]cc(CCNC(=O)c3ccc([N+](=O)[O-])cc3)c2c1,,"inconclusive: 56.2 µM [inhibitor, partial curve, poor fit]"

# From PubChem BioAssay AID504333 (National Center for Advancing Translational Sciences (NCATS), 2011)
